Experimental data from US12729231B2, “Fusion protein having triple activity and use thereof” (SHANGHAI MINWEI BIOTECHNOLOGY CO., LTD, priority 2023, dated 2026).

T1: human GIP receptor (Homo sapiens, UniProt P48546)
T1 construct: expressed in transfected cells; host or cells: CHO-K1
T1 sequence (P48546 22-466): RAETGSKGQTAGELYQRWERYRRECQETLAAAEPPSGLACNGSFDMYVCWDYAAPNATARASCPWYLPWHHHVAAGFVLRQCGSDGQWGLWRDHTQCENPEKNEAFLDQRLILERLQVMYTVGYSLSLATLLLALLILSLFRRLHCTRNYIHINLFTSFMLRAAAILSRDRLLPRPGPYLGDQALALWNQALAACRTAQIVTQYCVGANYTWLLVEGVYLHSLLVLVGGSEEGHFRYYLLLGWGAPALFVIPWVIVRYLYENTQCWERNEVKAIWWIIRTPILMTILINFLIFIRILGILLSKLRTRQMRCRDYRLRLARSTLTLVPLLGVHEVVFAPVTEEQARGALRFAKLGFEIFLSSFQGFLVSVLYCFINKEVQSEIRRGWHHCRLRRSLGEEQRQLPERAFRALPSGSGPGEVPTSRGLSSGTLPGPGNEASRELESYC


Key:
[1] = target: T1, human GIP receptor; assay: in vitro GIP activity, CRE-luciferase reporter in CHO-K1 cells; type: cell-based; conditions: CHO-K1 cells expressing human GIP receptor and CRE-luciferase, 5 hours incubation
Description: (§1) CHO-K1 cells expressing human GIP receptor and CRE-luciferase were used to detect the in vitro GIP activity of the fusion proteins. The cells were inoculated in a 96-well plate at a density of 30,000 cells/well/100 μL, and cultured at 5% CO2, 37° C. for 1 hour. For each protein sample to be tested, the protein solution was diluted 9 times with a 4-fold gradient with PBS containing 2% HAS starting from a certain concentration, so that 10 dilutions of each sample with different concentrations were obtained. 50 μL of each dilution was taken out and added into the 96-well plate inoculated with cells, and the 96-well plate was incubated at 5% CO2, 37° C. for 5 hours. The 96-well plate was taken out from the incubator and placed at room temperature for 10 minutes of equilibration, and 100 μL of reaction solution was added into each well. After the 96-well plate was shaken at 200 rpm for 10 minutes, the fluorescence reading of each well was detected by a multi-function microplate reader. Using the sample concentration as the abscissa and the fluorescence reading as the ordinate, a curve was drawn and the median effective concentration (EC50) of each sample was calculated.

[2] = target: T2, human GLP-1 receptor (Homo sapiens, UniProt P43220); assay: in vitro GLP-1 activity, CRE-luciferase reporter in CHO-K1 cells; type: cell-based; conditions: CHO-K1 cells expressing human GLP-1 receptor and CRE-luciferase, 5 hours incubation
T2 construct: expressed in transfected cells; host or cells: CHO-K1
Description: as §1, with “GLP-1” for “GIP”

T2 sequence (P43220 24-463): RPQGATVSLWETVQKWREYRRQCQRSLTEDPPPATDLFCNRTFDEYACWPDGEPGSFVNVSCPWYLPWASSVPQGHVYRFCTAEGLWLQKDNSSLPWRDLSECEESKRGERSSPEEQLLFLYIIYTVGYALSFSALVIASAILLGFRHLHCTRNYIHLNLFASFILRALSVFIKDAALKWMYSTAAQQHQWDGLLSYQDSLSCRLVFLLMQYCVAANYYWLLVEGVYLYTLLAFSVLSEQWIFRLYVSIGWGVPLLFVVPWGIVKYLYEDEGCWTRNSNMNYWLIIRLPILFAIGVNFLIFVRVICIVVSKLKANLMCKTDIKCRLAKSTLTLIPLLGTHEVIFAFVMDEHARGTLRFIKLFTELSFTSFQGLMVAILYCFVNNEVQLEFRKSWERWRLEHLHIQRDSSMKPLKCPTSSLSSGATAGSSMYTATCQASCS

Molecule | EC50 [1] | EC50 [2]
12C3-F: GLP-1/GIP mutant 12C3 (SEQ ID NO 10)-linker-IgG4 Fc-linker-FGF21 mutant fusion protein, SEQ ID NO 5 (protein, 12C3-F fusion protein) YGEGTFTSDYSIYLDKIAQKAFIEWLIAGGPSSGAPPPSGGGGSGGGGSGGGGSA[human IgG4 Fc with S228P F234A L235A (EU numbers) not listed]GGGGSGGGGSGGGGSHPIPDSSPLLQFGGQVRQVYLYTDDAQQTEAHLEIREDGTVGGAADQSPESLLQLKALKPGVIQILGVKTSRFLCQRPDGALYGSLHFDPEACSFRERLLEDGYNVYQSEAHGLPLHLPGNKSPHRDPAPRGPARFLPLPGLPPALPEPPGILAPQPPDVGSSDPLSMVGNSTGRSPSYAS | 0.055 nM | 0.515 nM
12C11-F: GLP-1/GIP mutant 12C11 (SEQ ID NO 18)-linker-IgG4 Fc-linker-FGF21 mutant fusion protein, SEQ ID NO 6 (protein, 12C11-F fusion protein) HGEGTFTSDYSIYLDKIAAKDFIEWLIAGGPSSGAPPPSGGGGSGGGGSGGGGSA[human IgG4 Fc with S228P F234A L235A (EU numbers) not listed]GGGGSGGGGSGGGGSHPIPDSSPLLQFGGQVRQVYLYTDDAQQTEAHLEIREDGTVGGAADQSPESLLQLKALKPGVIQILGVKTSRFLCQRPDGALYGSLHFDPEACSFRERLLEDGYNVYQSEAHGLPLHLPGNKSPHRDPAPRGPARFLPLPGLPPALPEPPGILAPQPPDVGSSDPLSMVGNSTGRSPSYAS | 0.036 nM | 0.255 nM
12C8-F: fusion protein with R1 = 12C8 (SEQ ID NO 15), linker, Fc, linker, FGF21 element (protein) YGEGTFTSDYSIYLDKIAAKAFVQWLIAGGPSSGAPPPSGGGGSGGGGSGGGGSA[human IgG4 Fc with S228P F234A L235A (EU numbers) not listed]GGGGSGGGGSGGGGSHPIPDSSPLLQFGGQVRQVYLYTDDAQQTEAHLEIREDGTVGGAADQSPESLLQLKALKPGVIQILGVKTSRFLCQRPDGALYGSLHFDPEACSFRERLLEDGYNVYQSEAHGLPLHLPGNKSPHRDPAPRGPARFLPLPGLPPALPEPPGILAPQPPDVGSSDPLSMVGNSTGRSPSYAS | 0.022 nM | 2.23 nM
12C5-F: fusion protein with R1 = 12C5 (SEQ ID NO 12), linker, Fc, linker, FGF21 element (protein) YGEGTFTSDYSILLDKIAAKDFVQWLIAGGPSSGAPPPSGGGGSGGGGSGGGGSA[human IgG4 Fc with S228P F234A L235A (EU numbers) not listed]GGGGSGGGGSGGGGSHPIPDSSPLLQFGGQVRQVYLYTDDAQQTEAHLEIREDGTVGGAADQSPESLLQLKALKPGVIQILGVKTSRFLCQRPDGALYGSLHFDPEACSFRERLLEDGYNVYQSEAHGLPLHLPGNKSPHRDPAPRGPARFLPLPGLPPALPEPPGILAPQPPDVGSSDPLSMVGNSTGRSPSYAS | 0.032 nM | 6.32 nM
12C9-F: fusion protein with R1 = 12C9 (SEQ ID NO 16), linker, Fc, linker, FGF21 element (protein) HSEGTFTSDYSILLDKIAAKDFVQWLIAGGPSSGAPPPSGGGGSGGGGSGGGGSA[human IgG4 Fc with S228P F234A L235A (EU numbers) not listed]GGGGSGGGGSGGGGSHPIPDSSPLLQFGGQVRQVYLYTDDAQQTEAHLEIREDGTVGGAADQSPESLLQLKALKPGVIQILGVKTSRFLCQRPDGALYGSLHFDPEACSFRERLLEDGYNVYQSEAHGLPLHLPGNKSPHRDPAPRGPARFLPLPGLPPALPEPPGILAPQPPDVGSSDPLSMVGNSTGRSPSYAS | 0.093 nM | 10.7 nM
12C4-F: fusion protein with R1 = 12C4 (SEQ ID NO 11), linker, Fc, linker, FGF21 element (protein) HSEGTFTSDYSILLDKIAAKDFIEWLIAGGPSSGAPPPSGGGGSGGGGSGGGGSA[human IgG4 Fc with S228P F234A L235A (EU numbers) not listed]GGGGSGGGGSGGGGSHPIPDSSPLLQFGGQVRQVYLYTDDAQQTEAHLEIREDGTVGGAADQSPESLLQLKALKPGVIQILGVKTSRFLCQRPDGALYGSLHFDPEACSFRERLLEDGYNVYQSEAHGLPLHLPGNKSPHRDPAPRGPARFLPLPGLPPALPEPPGILAPQPPDVGSSDPLSMVGNSTGRSPSYAS | 0.056 nM | 2.56 nM
12C7-F: fusion protein with R1 = 12C7 (SEQ ID NO 14), linker, Fc, linker, FGF21 element (protein) HSEGTFTSDYSIYLDKIAAKDFIEWLIAGGPSSGAPPPSGGGGSGGGGSGGGGSA[human IgG4 Fc with S228P F234A L235A (EU numbers) not listed]GGGGSGGGGSGGGGSHPIPDSSPLLQFGGQVRQVYLYTDDAQQTEAHLEIREDGTVGGAADQSPESLLQLKALKPGVIQILGVKTSRFLCQRPDGALYGSLHFDPEACSFRERLLEDGYNVYQSEAHGLPLHLPGNKSPHRDPAPRGPARFLPLPGLPPALPEPPGILAPQPPDVGSSDPLSMVGNSTGRSPSYAS | 0.093 nM | 0.988 nM
12C10-F: fusion protein with R1 = 12C10 (SEQ ID NO 17), linker, Fc, linker, FGF21 element (protein) YSEGTFTSDYSIYLDKIAAKAFVQWLIAGGPSSGAPPPSGGGGSGGGGSGGGGSA[human IgG4 Fc with S228P F234A L235A (EU numbers) not listed]GGGGSGGGGSGGGGSHPIPDSSPLLQFGGQVRQVYLYTDDAQQTEAHLEIREDGTVGGAADQSPESLLQLKALKPGVIQILGVKTSRFLCQRPDGALYGSLHFDPEACSFRERLLEDGYNVYQSEAHGLPLHLPGNKSPHRDPAPRGPARFLPLPGLPPALPEPPGILAPQPPDVGSSDPLSMVGNSTGRSPSYAS | 0.111 nM | 7.36 nM
12C6-F: fusion protein with R1 = 12C6 (SEQ ID NO 13), linker, Fc, linker, FGF21 element (protein) HGEGTFTSDYSILLDKIAQKDFVQWLIAGGPSSGAPPPSGGGGSGGGGSGGGGSA[human IgG4 Fc with S228P F234A L235A (EU numbers) not listed]GGGGSGGGGSGGGGSHPIPDSSPLLQFGGQVRQVYLYTDDAQQTEAHLEIREDGTVGGAADQSPESLLQLKALKPGVIQILGVKTSRFLCQRPDGALYGSLHFDPEACSFRERLLEDGYNVYQSEAHGLPLHLPGNKSPHRDPAPRGPARFLPLPGLPPALPEPPGILAPQPPDVGSSDPLSMVGNSTGRSPSYAS | 0.009 nM | 7.12 nM
12C1-F: GLP-1/GIP mutant 12C1 (SEQ ID NO 8)-linker-IgG4 Fc-linker-FGF21 mutant fusion protein, SEQ ID NO 4 (protein, 12C1-F fusion protein) YGEGTFTSDYSILLDKIAQKAFIEWLIAGGPSSGAPPPSGGGGSGGGGSGGGGSA[human IgG4 Fc with S228P F234A L235A (EU numbers) not listed]GGGGSGGGGSGGGGSHPIPDSSPLLQFGGQVRQVYLYTDDAQQTEAHLEIREDGTVGGAADQSPESLLQLKALKPGVIQILGVKTSRFLCQRPDGALYGSLHFDPEACSFRERLLEDGYNVYQSEAHGLPLHLPGNKSPHRDPAPRGPARFLPLPGLPPALPEPPGILAPQPPDVGSSDPLSMVGNSTGRSPSYAS | 0.064 nM | 0.83 nM
